Experimental data taken from PubChem BioAssay AID1460 (National Center for Advancing Translational Sciences (NCATS), 2008).
About 5,800 (2.1%) of roughly 270,000 compounds were called active. The shares of active, inactive and inconclusive entries below differ from those in the screen. Calls come from the whole dose curve; as a rule, active = well fitted inhibition curve with a large enough effect; inconclusive = small, poorly fitted or top-dose-only effect; inactive = flat fitted curve, though single readings scatter. Potencies beside an inconclusive call are fits to weak or partial responses and may not hold up.

Target: Microtubule-associated protein tau (Homo sapiens) (UniProt P10636)
Chain of UniProt P10636 (P10636 whole entry, looked up): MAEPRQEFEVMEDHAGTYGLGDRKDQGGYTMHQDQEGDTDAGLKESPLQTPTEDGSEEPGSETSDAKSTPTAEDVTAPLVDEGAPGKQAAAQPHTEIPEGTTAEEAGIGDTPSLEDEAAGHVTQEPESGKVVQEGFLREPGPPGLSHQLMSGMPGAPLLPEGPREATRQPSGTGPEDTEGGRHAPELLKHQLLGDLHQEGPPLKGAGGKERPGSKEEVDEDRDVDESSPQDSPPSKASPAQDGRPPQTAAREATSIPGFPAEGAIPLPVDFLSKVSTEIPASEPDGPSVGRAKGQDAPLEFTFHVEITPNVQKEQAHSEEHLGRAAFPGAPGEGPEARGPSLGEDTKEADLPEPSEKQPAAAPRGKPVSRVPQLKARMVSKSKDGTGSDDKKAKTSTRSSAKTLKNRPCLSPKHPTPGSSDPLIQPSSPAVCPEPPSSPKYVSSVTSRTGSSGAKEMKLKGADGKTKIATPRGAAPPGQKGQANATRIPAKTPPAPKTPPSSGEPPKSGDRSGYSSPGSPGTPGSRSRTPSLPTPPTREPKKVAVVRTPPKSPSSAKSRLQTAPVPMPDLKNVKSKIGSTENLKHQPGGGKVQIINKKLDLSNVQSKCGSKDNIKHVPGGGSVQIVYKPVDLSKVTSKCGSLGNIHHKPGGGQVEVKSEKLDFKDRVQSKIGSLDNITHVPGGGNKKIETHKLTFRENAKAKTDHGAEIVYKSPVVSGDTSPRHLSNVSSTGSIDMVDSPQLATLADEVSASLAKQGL
Assay: qHTS for Inhibitors of Tau Fibril Formation, Thioflavin T Binding; note: nearly all actives have a fitted effect of over 55% in size
Settings: recombinant tau K18 P301L (four-repeat tau fragment), heparin-induced fibrillization, ThT fluorescence; series mostly up to 57.4 µM; activity, negative = inhibition: at the top concentration
Summary of the method: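 K18 P301L tau (15 uM + 0.24 uM Alexa 594-tagged), heparin 20 uM, NaOAc pH 7, 6 h 37 C; ThT 30 uM, 1 h RT, ex 450/em 510 nm.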
% is set by controls: 0 for no effect and ±100 for the full control effect; potency is the fitted concentration of half-maximal effect; tags give direction and shape of the fitted curve.

SMILES	Potency	activity, negative = inhibition
Cn1cccc1CC(=O)N/N=C/c1cccc([N+](=O)[O-])c1	inconclusive: 39.8 µM [inhibitor, single point]	
CCCCCCSC1=C(C#N)C(=O)NC2(CCCCC2)S1	inconclusive: 25.1 µM [inhibitor, partial curve]	
Cn1c(=O)c(C=Nc2ccccc2)c(O)c2ccccc21	inconclusive: 20 µM [inhibitor, partial curve, poor fit]	
N#CC1=C(N)SC(N)=C(C#N)C1CCC1CCCCC1	inconclusive: 15.8 µM [inhibitor, single point]	
CC(=O)c1sc(-c2ccc(Cl)cc2)cc1N	inconclusive: 0.0282 µM [inhibitor, full curve, poor fit]	
CCOc1cc(C)c(C(C)C)cc1S(=O)(=O)NCc1ccccn1		inactive: 4.31%
CCOC(=O)C1CCCN(Cc2sccc2C)C1 (stereo unspecified)		inactive: -18.6%
Cc1c(Cl)cccc1NS(=O)(=O)c1ccc2[nH]cc(C(=O)NC3CCCC3)c(=O)c2c1		inactive: 11%
O=C1CN(C(=O)COC(=O)COc2ccc3c(c2)CCC3)c2ccccc2N1		inactive: -7.21%
CCCc1cc2c(=O)c(-c3nc4ccccc4s3)c(COCC(=O)O)oc2cc1O	inconclusive: 25.1 µM [inhibitor, partial curve]	
CC(=O)C1=C(c2ccc(Br)cc2)C(=O)c2ccccc2C1=O	active: 8.91 µM	
CCC(=O)c1ccc(N2CCN(C(=O)c3cc([N+](=O)[O-])ccc3F)CC2)c(F)c1	inconclusive: 5.62 µM [inhibitor, partial curve, poor fit]	
Cc1cccc(/C=C2/C(=O)/C(=C/c3ccccc3C)C3CCC2N3C)c1 (stereo unspecified)	inconclusive: 5.01 µM [inhibitor, full curve]	
CCOc1ccc(-c2cc(CCCC(=O)NCc3ccco3)no2)cc1	inconclusive: 1.58 µM [inhibitor, full curve]	
C=C(C(=O)O)[C@@H]1CC[C@@]2(C)CCC[C@](C)(O)[C@@H]2C1		inactive: -2.14%
CCC1C/C(=C/c2ccco2)C(=O)/C(=C/c2ccco2)C1 (stereo unspecified)	inconclusive: 15.8 µM [inhibitor, partial curve]	
C=CCOc1ccc(/C=N/Nc2ccccn2)cc1OC	inconclusive: 12.6 µM [inhibitor, partial curve]	
CCCCCSc1nc2c(c(=O)[nH]c(=O)n2C)n1CCc1ccccc1		inactive: -2.7%
Nc1cc(-c2ccc(Cl)cc2)nn1S(=O)(=O)c1cccc2nsnc12	inconclusive: 28.2 µM [inhibitor, partial curve]	
O=C(Nc1nc(-c2ccccc2)cs1)c1cccc([N+](=O)[O-])c1C(=O)O		inactive: -5.48%
CC(C)CN=C(NS(=O)(=O)c1ccccc1)C(Cl)(Cl)Cl	inconclusive: 31.6 µM [inhibitor, single point]	
Oc1ccc(N=Cc2ccc(-c3cccs3)s2)cc1	active: 7.94 µM	
CCc1ccc(-c2cn3c(n2)sc2cc(C(=O)NCCc4ccc(OC)cc4OC)ccc23)cc1		inactive: -11.5%

SMILES	Potency	activity, negative = inhibition
COCCCN1C(=O)CC(C(=O)OC)=C1C	inconclusive: 39.8 µM [inhibitor, single point]	
O=C(c1noc2c1CCCCC2)N1CCN(c2ccc(Cl)cc2)CC1	inconclusive: 4.47 µM [inhibitor, partial curve, poor fit]	
Cc1ccccc1NC(=S)c1nc2ccccc2[nH]1	inconclusive: 14.1 µM [inhibitor, partial curve]	
C/C(=N\Nc1ccccn1)c1ccc(OC(F)F)cc1	inconclusive: 25.1 µM [inhibitor, single point]	
CCOC(=O)c1ccccc1-c1csc(N)n1		inactive: 0.352%
CN(CC(=O)NC(=O)NCc1ccccc1)Cc1cccc(Cl)c1Cl	inconclusive: 17.8 µM [inhibitor, single point]	
O=C(NC(=S)Nc1nc(-c2ccccc2)cs1)c1cccnc1	inconclusive: 14.1 µM [inhibitor, partial curve]	
CCOC(=O)c1c(C)n(C)c2ccc(OCC(O)CN3C(=O)c4ccccc4S3(=O)=O)cc12 (stereo unspecified)		inactive: -7.18%
CCOC(=O)Cc1ccc(NC(=O)Nc2cccc(OCc3cc(=O)n4cc(C)ccc4n3)c2)cc1		inactive: 10.7%
COc1cccc(N2CC(O)=C(c3nc4ccccc4c(=O)[nH]3)C2=N)c1	inconclusive: 15.8 µM [inhibitor, partial curve]	
CCCCCCCCCc1nc2sc3c(c2c(=O)n1NC(=O)c1ccc([N+](=O)[O-])cc1)CC(C)(C)OC3		inactive: 12.4%
CCCC(=O)Oc1ccc(N(C(=O)CCC)S(=O)(=O)c2cccs2)cc1	inconclusive: 15.8 µM [inhibitor, partial curve]	
Cc1cccc(Nc2nc(N)c([N+](=O)[O-])c(N3CCOCC3)n2)c1	inconclusive: 17.8 µM [inhibitor, partial curve]	
CNC1=C(Cl)C(=O)c2ccncc2C1=O	inconclusive: 22.4 µM [inhibitor, partial curve, poor fit]	
COc1cccc(CNc2ccc3c(c2)CCC3)c1	inconclusive: 10 µM [inhibitor, partial curve]	
COc1ccccc1/C=C/C(=O)c1ccc(NC(C)=O)cc1	inconclusive: 15.8 µM [inhibitor, partial curve]	
Cc1ccc(NC(=S)Nc2cccc3cnccc23)c(C)c1	inconclusive: 28.2 µM [inhibitor, single point]	
O=[N+]([O-])c1cc(S(=O)(=O)N2CCCCCC2)ccc1F	active: 15.8 µM	
COC(=O)C1=C(C(=O)OC)C(c2ccccc2O)c2sc(=O)[nH]c2S1 (stereo unspecified)	active: 25.1 µM	
CSc1nc(C)cc(SCC(=O)Nc2ccc(Cl)cc2Cl)n1	inconclusive: 25.1 µM [inhibitor, partial curve]	
COc1ccccc1C(=O)N1CCN(C2CCN(Cc3ccccc3)CC2)CC1		inactive: 0.32%
COc1ccc(NC(=O)c2cn(CC(C)C)c(=O)c3cc(OC)c(OC)cc23)cc1Cl	inconclusive: 2.82 µM [inhibitor, single point]	
COc1ccc(/C=N/NC(=O)CCn2nnc3ccccc32)cc1	inconclusive: 0.631 µM [inhibitor, full curve, poor fit]	
